Reference: the supplement of paper PMC3334620
Over roughly 33,000 sequences, “E-score (-0.5 to 0.5)” has its median near -0.012; the highest 2% begin near 0.29. This is one part of the list.

Molecular target: T1, Ybr033w (UniProt P38073)
T1 sequence: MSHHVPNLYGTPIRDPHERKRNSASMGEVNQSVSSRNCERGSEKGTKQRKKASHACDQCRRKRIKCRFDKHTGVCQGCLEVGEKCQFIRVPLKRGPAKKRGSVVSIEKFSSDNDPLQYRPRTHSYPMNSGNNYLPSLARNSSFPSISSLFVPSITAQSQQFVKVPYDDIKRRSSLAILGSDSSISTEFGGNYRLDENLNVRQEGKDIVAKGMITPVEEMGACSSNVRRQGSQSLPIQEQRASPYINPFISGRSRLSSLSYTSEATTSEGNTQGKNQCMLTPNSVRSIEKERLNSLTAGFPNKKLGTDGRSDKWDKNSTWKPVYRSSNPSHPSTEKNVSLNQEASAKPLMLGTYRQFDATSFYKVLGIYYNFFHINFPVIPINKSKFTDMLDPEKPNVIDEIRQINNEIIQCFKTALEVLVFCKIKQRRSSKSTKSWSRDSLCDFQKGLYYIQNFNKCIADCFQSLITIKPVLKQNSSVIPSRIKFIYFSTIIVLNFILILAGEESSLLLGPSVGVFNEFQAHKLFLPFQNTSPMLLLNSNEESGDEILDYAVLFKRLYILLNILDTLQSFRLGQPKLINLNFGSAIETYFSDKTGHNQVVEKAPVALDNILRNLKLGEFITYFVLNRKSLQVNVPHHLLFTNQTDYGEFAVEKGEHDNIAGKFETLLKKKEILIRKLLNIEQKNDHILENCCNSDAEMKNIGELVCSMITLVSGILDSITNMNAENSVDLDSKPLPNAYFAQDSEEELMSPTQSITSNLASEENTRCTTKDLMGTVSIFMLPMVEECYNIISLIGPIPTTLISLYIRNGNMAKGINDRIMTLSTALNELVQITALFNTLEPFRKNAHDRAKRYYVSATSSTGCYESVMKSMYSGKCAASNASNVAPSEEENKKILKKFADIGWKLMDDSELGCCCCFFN
Assay: PBM E-score (8-mer binding enrichment) (E-score (-0.5 to 0.5)); higher = stronger / more preferred TF binding; most listed sequences are background and not binding sites
Details: protein concentration: 200 nM; construct: GST-full length
Outline: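 GST-tagged yeast TFs (full-length or DNA-binding domain) were made by PURExpress in vitro transcription/translation and applied at about 100-200 nM to universal all-10-mer Agilent arrays. The arrays were made double-stranded by primer extension, on fresh or once-stripped slides. Bound protein was detected with fluorescent anti-GST, and scans were normalised with masliner. Each ungapped eight-base word, pooled with its reverse complement, received an E-score (modified Wilcoxon-Mann-Whitney statistic) from the Universal PBM Analysis Suite.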

Sequence	PBM E-score
GGCAAGGA	-0.104
CAGCACTG	-0.107
AAGAGAGC	-0.205
CCGGTAAA	0.151
ACTCGACC	-0.205
ATAGATAA	0.28
CACTGTAG	0.167
ATGGCGCC	-0.132
AGACGGCA	-0.0714
TATGTCAA	0.318
CCGATCCG	-0.16
AATCGCGA	0.0169
CCATAAGC	-0.118
AAGTCGCA	0.123
AAGCGGGC	-0.309
ATACCTCG	0.196
CCTATCGC	-0.207
ATATGGTC	0.0639
CCACGCAC	-0.0101
CTCGCTTA	0.0424
ATCTGCCA	-0.137
AAATTGTT	0.317
ATAACCTG	0.0845
ATGATTGA	-0.0158
ACAGCTGC	-0.0919

Sequence	PBM E-score
ACCACACA	0.182
GGAGGGCC	-0.176
CTGACCTA	-0.169
AGCTGAAT	0.135
CATCAGTA	0.0531
CCTAACGC	-0.00181
CACTGTTA	-0.0716
AACCGAGG	-0.305
CGTTCCTC	-0.0873
CATTGTAA	0.0608
ACCGCTGC	-0.31
AACCGCAG	0.0187
ACGACTCC	0.0443
CATCATGA	-0.00442
ATAACTTA	0.19
GAGTTGTA	0.174
CCCCGCCG	-0.0998
CGACTGAG	-0.0895
AGTGGAAT	0.0873
CATTAACA	0.139
CGCTGATA	-0.0541
ACGGCTGG	-0.0873
ATGACATG	-0.136
CAGAGTAG	-0.0934
ACAGGCGG	-0.0121

Sequence	PBM E-score
AGGTACGG	-0.182
GACAGTCC	-0.164
ACGACAAG	-0.0398
CCTAGTCA	-0.156
AAAGTGAC	0.105
GTCAAAAA	0.179
CTTCGAGA	-0.138
GCTTGGCA	-0.15
ACTGGCCT	-0.0126
TAAATATA	0.353
GTGCGCGA	-0.215
CACACAAA	0.247
AGAGGCAC	-0.219
CAGTTCAC	0.0016
ATATTGTG	0.0988
ATTAACAG	0.0928
GTATGGCA	-0.0717
GTCAGCTA	-0.241
CAGTATCA	-0.0137
ATGCCACG	-0.193
CACTTGTA	0.0975
CTGAGCTA	-0.0777
ACTTTTCG	0.248
TTAGAAAA	0.172
TAACTGAA	0.0212

Sequence	PBM E-score
ACCACGGA	-0.239
GCAGTGCA	0.054
CCTACTAA	0.155
TGCGAGAA	-0.17
CGAGCCCG	-0.227
CCGGTTCC	-0.13
ACTTATCG	0.00773
CCTGGCAG	-0.148
CCGTGGAA	0.11
ACTGCAAA	0.173
TATGCTGA	0.163
CCCTAACC	-0.265
AGACTCGG	-0.198
ACTCCTAC	0.0754
GCATAAGC	0.101
CTGCCCAC	-0.165
ACCACTCT	-0.00146
ACGTCGAC	-0.102
ATACCAAG	0.116
CAACATTA	0.162
CATGTGTC	-0.0905
CCCAGAGA	-0.238
ACCATACC	-0.0191
AATATACC	0.182
ATGAACCA	0.225

Sequence	PBM E-score
ATCAGCAT	0.186
AAAAGTTT	0.266
ACGAGGAG	-0.00401
AAGTGGGC	-0.0419
CCCTACGA	-0.0577
CGACCTCA	-0.0245
CTTTTACC	0.101
CTCTGGCA	-0.0948
CTGTTGTC	-0.0159
TAAGATAA	-0.0896
TTCTTCAA	0.107
AATCAGCC	-0.206
ACAGGGTC	-0.139
AGGGTACA	-0.0463
ATCTTGAA	0.187
GTTTATGA	0.0962
CGTCTTAA	-0.00538
CGATGTGA	-0.16
ATACCTGG	-0.328
CAGTGAGA	0.115
AACGTTGT	0.0448
CGAAGACG	-0.227
CGCTTTTC	-0.0741
GACAAGAC	-0.132
TCCAAACA	-0.0188

Sequence	PBM E-score
AGTCGGTC	-0.155
CGGTCTTA	-0.0935
AATGTTAC	0.192
AGCTTCTC	-0.0146
CGGACAAA	0.297
GTCACGAA	-0.0549
GAACTTAC	0.123
GGTGGCGA	-0.195
CACATACC	-0.0596
CTGGACGA	-0.176
AGCAAAAT	0.2
CGTGGGCC	-0.155
AAAACGGC	0.0978
CCTTCTAA	0.0287
ATATCATG	0.117
CGAATACA	0.0752
CATGAATG	0.0636
ATTATTAC	0.343
CCTAGGGC	-0.164
ATGTGCAG	-0.0953
GCTGGCTA	-0.236
AAAACACG	0.163
ATATGTAG	0.0986
CCAGCGGG	-0.0746
ATGCAGAA	0.139

Sequence	PBM E-score
GCAGTAAA	-0.0178
AGTTTTCC	0.216
AGCTTAAC	-0.0905
CTTCCTTC	-0.0503
CATACTTC	0.0369
AGAAAGAT	0.234
GTAACCAC	-0.255
TGCGGCAA	-0.108
ACGGTAGT	0.126
AAGGTGTC	0.0112
GCCCACAC	-0.102
CGCAGGAG	-0.016
AATAGGGG	-0.0543
AAACGCTG	-0.223
ATTAGGGA	-0.0481
CTATGCTC	-0.163
AGGCTTAC	-0.0447
AAAAACGT	0.201
CGGCATAC	-0.0206
AAGTTGTG	0.121
CACACGAC	-0.167
AACAAATA	0.285
ATTACACG	0.12
AGGGTAAG	0.0154
AGATGAAT	0.0744

Sequence	PBM E-score
TAAACGCA	0.122
CCGGACTA	0.0994
TCCCACGA	0.0793
GCTAGGTA	-0.0571
ACCACATA	0.123
GTGATCTA	0.119
CATACGTA	0.131
ACGCATCG	-0.117
CTCTTTAA	0.0502
ATAACTCA	0.0944
GAACGTAC	-0.00429
TCAATTAA	0.252
GGGCATAA	0.0902
ACTCTTGA	0.0929
GAACTCTA	0.0293
CGTTGGGC	-0.125
GGAGCGAC	-0.179
AGGCTGAT	-0.0692
GCTCCCCC	-0.441
CCAAAAAA	0.332
ATTAGGGC	-0.0995
AATATCCC	0.141
ATTGAACC	0.126
CAAATGCG	0.0942
CATCGTTC	-0.144

Sequence	PBM E-score
AACGTCAG	-0.153
AGCCGCAC	0.0151
AACGCTGT	-0.0162
GGGTCAAC	-0.0379
TGAGGGCA	-0.136
ACATCTAC	0.0632
GGGTTCGA	-0.186
ATTCCTTG	-0.023
TCCTACCA	-0.0821
GCAGTTAA	0.0188
GAAGGAAA	-0.0344
TAGCGTAA	0.178
AGGACGGG	-0.332
CCTGACGA	0.00681
CGCCCTTC	-0.128
CTAGCCTA	-0.104
GGTACAAC	-0.0662
AGTATTGC	0.169
CTCTGCGC	-0.118
